Molecular target: T1, dysfunctional P2X7 receptor (human, UniProt Q99572 1-595)
T1 construct: Endogenous on cancer cell lines (MOLM-13, JeKo-1); also called nfP2X7; nfP2X7 receptor
T1 sequence: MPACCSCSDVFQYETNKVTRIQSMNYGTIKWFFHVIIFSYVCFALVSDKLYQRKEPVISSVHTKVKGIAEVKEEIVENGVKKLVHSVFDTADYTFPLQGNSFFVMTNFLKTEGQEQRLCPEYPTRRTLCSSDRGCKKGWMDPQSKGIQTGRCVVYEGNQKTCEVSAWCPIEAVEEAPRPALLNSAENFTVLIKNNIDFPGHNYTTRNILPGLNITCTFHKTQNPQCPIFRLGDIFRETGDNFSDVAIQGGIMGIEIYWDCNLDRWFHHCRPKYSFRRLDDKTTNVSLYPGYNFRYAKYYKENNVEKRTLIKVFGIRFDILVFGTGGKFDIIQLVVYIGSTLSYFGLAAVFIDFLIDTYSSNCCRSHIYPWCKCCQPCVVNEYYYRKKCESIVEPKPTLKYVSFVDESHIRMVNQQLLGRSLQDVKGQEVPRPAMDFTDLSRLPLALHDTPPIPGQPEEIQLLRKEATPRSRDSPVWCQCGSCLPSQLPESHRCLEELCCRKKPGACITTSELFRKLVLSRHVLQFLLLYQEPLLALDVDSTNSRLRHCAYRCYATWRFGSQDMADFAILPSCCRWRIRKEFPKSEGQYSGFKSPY
Test: flow cytometry, anti-HIS-FITC, MOLM-13 cells
Method: Indirect staining of artificial proteins on MOLM-13 cells via anti-HIS staining. […] Histogram overlay of HIS-FITC positivity on MOLM-13. […] HIS-ab was used according to manufacturer with 1 μl per test, target cells were incubated with 50 μl of supernatant from Lenti-X™ 293T cells for 10 min at room temperature. Supernatant harvested 48 h after transfection.

B1: Orchestration molecule OR1 (nfP2X7), single domain Fc fusion protein (Fc fusion)
chain: EVQLLESGGGLVQPGGSLRLSCAASGFTFRNHDMGWVRQAPGKGLEWVSAISGSGGSTYYANSVKGRFTISRDNSKNTLYLQMNSLRAEDTAVYYCAEPKPMDTEFDYRSPGTLVTVSS[human IgG1 Fc with changes and a few adjoining residues skipped]
notes: BIL03 VH single domain, IgG1 hinge-CH2-CH3 (SDIE), 6xHis; Tested as supernatant of transfected Lenti-X 293T cells
- binding result: binds

— patent US20240368282A1 (BIOSCEPTRE AUST, published 2024)
